Test results from PubChem BioAssay AID485364 (National Center for Advancing Translational Sciences (NCATS), 2010).
The campaign covered roughly 360,000 compounds. About 11,000 (3.1%) were called active. Inconclusive means that the source gave no clear call. Such entries were picked first, then a sample of the others. Calls come from the whole dose curve; as a rule, active = well fitted inhibition curve with a large enough effect; inconclusive = small, poorly fitted or top-dose-only effect; inactive = no such curve, though single readings can be large or run the other way. No potency is given beside an inconclusive call; the fits are too rough.

Biological target: Schistosoma mansoni thioredoxin glutathione reductase (TGR) (UniProt Q962Y6)
Assay: qHTS Assay for the Inhibitors of Schistosoma Mansoni Peroxiredoxins; note: nearly all actives have a fitted effect of over 60% in size
Conditions: purified TGR, DTNB reduction, TNB absorbance 405 nm; activity change, negative = inhibition: at 114 µM (top of the series) unless noted
How it was run: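 Kinetic colorimetric format: TGR-catalysed, NADPH-driven DTNB reduction monitored via TNB absorbance. Enzyme dispensed at 20 nM; compound exposure 15 min at room temperature before reaction start.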
% is set by controls: 0 for no effect and ±100 for the full control effect; potency is the fitted concentration of half-maximal effect; tags give direction and shape of the fitted curve.

Row | Structure (SMILES) | Potency | activity change, negative = inhibition
1 | O=C(COc1ccccc1)NCC(c1cccs1)S(=O)(=O)c1ccc(Cl)cc1 (stereo not given) | inconclusive [inhibitor, partial curve] | 
2 | COc1ccc(F)c(CN2CCCC(CO)(Cc3cccc(Cl)c3)C2)c1 (stereo not given) |  | inactive: 1.25%
3 | COc1ccc(/C=C(\C#N)C(=O)Nc2ccccn2)cc1 | inconclusive [inhibitor, partial curve] | 
4 | COc1cc2c(cc1OC)C1O[C@](CCCCN3C(=O)c4ccccc4C3=O)(C2)OC2=C1C(=O)CCC2 | inconclusive [inhibitor, partial curve] | 
5 | c1ccc2c3c([nH]c2c1)C1(CCCCC1)NCC3 | inconclusive [inhibitor, single point] | 
6 | O=C(O)c1nn2c(C(F)(F)F)cc(-c3cccs3)nc2c1Cl | inconclusive [inhibitor, partial curve] | 
7 | CNCc1ccccc1Sc1ccc(O)c(O)c1 | active: 22.4 µM | 
8 | Cc1ccc(-n2nc3c(c2NC(=O)c2ccccc2)CS(=O)(=O)C3)cc1C | inconclusive [inhibitor, single point] | 
9 | COc1ccc(C2=NN(S(C)(=O)=O)C(c3cn(-c4ccccc4)nc3-c3cccs3)C2)cc1 (stereo not given) |  | inactive: 0.253%
10 | CCOC(=O)C1CCN(Cc2c(O)ccc3ccccc23)CC1 | active: 3.55 µM | 
11 | Cc1nc(Oc2ccccc2C)c2oc3ccccc3c2n1 | inconclusive [inhibitor, single point] | 
12 | COCCN1CN(S(=O)(=O)c2ccccc2)c2nc3ccccc3nc21 | inconclusive [inhibitor, partial curve] | 
13 | Cc1ccc(C2c3c(oc4cc(C)c(C)cc4c3=O)C(=O)N2CCCN2CCOCC2)cc1 (stereo not given) | inconclusive [inhibitor, partial curve] | 
14 | CCc1ccc(CCC(=O)Nc2nccs2)o1 | active: 31.6 µM | 
15 | Cc1sc2nc(SCC(=O)NCc3ccco3)n(Cc3ccccc3)c(=O)c2c1C | inconclusive [inhibitor, partial curve] | 
16 | COc1ccc2nc3oc(C(=O)Nc4cccc(C(F)(F)F)c4)cc3cc2c1 |  | inactive: 1.62%
17 | COc1ccc(C(=O)NC(Oc2ccccc2)C(Cl)(Cl)Cl)cc1 (stereo not given) | inconclusive [inhibitor, full curve] | 
18 | CS(=O)(=O)N(CC(=O)NCc1ccco1)Cc1ccc(Cl)cc1 | active: 11.2 µM | 
19 | CC(C)(C)c1ccc(C(=O)N2CCN(C(=O)c3ccco3)CC2)cc1 | inconclusive [inhibitor, partial curve, poor fit] | 
20 | O=[N+]([O-])c1cc(-c2nc(-c3ccccc3)no2)ccc1N1CCCC1 |  | inactive: -5.56%
21 | Cc1cc(NS(=O)(=O)c2ccc(NC(=S)NC(=O)c3cccc(S(=O)(=O)N(C)C)c3)cc2)no1 | active: 35.5 µM | 
22 | Cc1ccc(/C=[N+](\[O-])c2ccc(N(C)C)cc2)c2nsnc12 | active: 28.2 µM | 
23 | CCCn1cc(CN2CCN(Cc3ccc(C)o3)C(CCO)C2)c(C)n1 (stereo not given) | inconclusive [inhibitor, partial curve] | 

Row | Structure (SMILES) | Potency | activity change, negative = inhibition
24 | Cc1nnc(C)c2c(C)n(N)c(C)c12 | inconclusive [inhibitor, partial curve, poor fit] | 
25 | CC1Sc2ccc(S(=O)(=O)CCC(=O)N3CCc4ccccc43)cc2NC1=O (stereo not given) | inconclusive [inhibitor, full curve] | 
26 | CC1=CC(c2ccccc2)n2nc(N3C(=O)c4ccccc4C3=O)nc2N1 (stereo not given) | active: 35.5 µM | 
27 | C/C(=N\Nc1ccc(Cl)cc1)c1c(O)cc(C)oc1=O | active: 22.4 µM | 
28 | CCN(CC(=O)Nc1ccccc1C(F)(F)F)C(=O)c1ccc(N2CCCC2=O)cc1 |  | inactive: -29.1%
29 | CC(C)=C1C2CCC1C1C(=O)N(c3ccc4c(c3)OCO4)C(=O)C21 (stereo not given) |  | inactive: -8.44%
30 | O=C1c2ccccc2CC1(Cc1ccccc1)Cc1ccccc1 |  | inactive: -16.4%
31 | COCCSc1nnc(NC(=O)C2CCCO2)s1 (stereo not given) |  | inactive: -5.46%
32 | O=C(NCCc1ccc(Cl)cc1)C(=O)NCC(c1ccco1)S(=O)(=O)c1cccs1 (stereo not given) | active: 39.8 µM | 
33 | O=C(Nc1cccc(-c2cscn2)c1)C1CCN(Cc2ccc(CO)o2)CC1 | inconclusive [inhibitor, partial curve] | 
34 | Cc1[nH]n(-c2ccccc2)c(=O)c1C(C[N+](=O)[O-])c1ccc(Br)cc1 (stereo not given) | inconclusive [inhibitor, partial curve, poor fit] | 
35 | Cc1ccc(Oc2nc3c(C)cccn3c(=O)c2/C=C(\C#N)C(N)=O)cc1 | inconclusive [inhibitor, partial curve, poor fit] | 
36 | COc1ccc(OCC(=O)Nc2nnc(-c3ccco3)s2)cc1 | active: 28.2 µM | 
37 | O=c1[nH]c(=O)n(-c2ccccc2)c(O)c1C=NC12CN3CN(CN(C3)C1)C2 | inconclusive [inhibitor, full curve] | 
38 | Cc1ccc(C(=O)C2=C(O)C(=O)N(c3ncccn3)C2c2ccc(Br)cc2)o1 (stereo not given) | inconclusive [inhibitor, partial curve] | 
39 | COC(=O)C1=C(c2ccc(Cl)c(C(F)(F)F)c2)C[C@@H]2CC[C@H]1N2C(=O)NC1CCCCC1 | inconclusive [inhibitor, partial curve] | 
40 | CCOC(=O)C1(Cc2cccc(F)c2)CCN(Cc2ccc(COC)o2)CC1 | inconclusive [inhibitor, partial curve] | 
41 | CCCc1[nH]nc2c1C(c1ccc(OC(=O)c3ccco3)cc1)C(C#N)=C(N)O2 (stereo not given) | inconclusive [inhibitor, full curve] | 
42 | O=C(Cc1ccc(N(CCCl)CCCl)cc1)NC(Cc1ccc(Cl)cc1)C(=O)O (stereo not given) | inconclusive [inhibitor, full curve] | 
43 | COc1cccc(/C=C2/CN(C)CC3=C2OC(N)=C(C#N)C3c2cccc(OC)c2)c1 (stereo not given) | inconclusive [inhibitor, partial curve] | 
44 | O=C(Nc1ccc(F)cc1)C1CCN(c2nc3ccccc3n3cccc23)CC1 |  | inactive: 0.483%
45 | CCCCn1c(C(C)O)nc2ccccc21 (stereo not given) | inconclusive [inhibitor, single point] | 
